Read counts are not given, so values of variants with three or more changes are uncertain.

First the molecules themselves.
B1: LINE1-mini (parent)
chain: GGCAGAGCUCAACACAGCGUGGCAAAGUGGCUGUGGCUAGACUGCC

This series covers variants of B1. Description: self-cleavage, relative activity (ratio to wild type); higher = more cleavage; in vitro, sequencing; the parent is a self-cleaving ribozyme.
Consider G7A A11C G27C, for which the self-cleavage is 0.03.

As to G7A A11U A16G G33C, the self-cleavage is 0.04. Then A6U U9C C18U A24U, with 0.03. Then G7A C8A C15A U38A, with 0.25. Then A6U U34A C45U, with 0.4; and G7A A12G C15A C23U G29A C46U, with 0.01. As for G7A A12C U20C, the self-cleavage amounted to 0.01. Then G7A A11G G17C U32G G33U, with 0.01; and G7A A26U U43C, with 0.08. For G7A A11U C18A G19U U34A, the self-cleavage turned out to be 0.02. Then A6U U20C G35C G36U C37A, with 0.09. For A6U U9G G17U G35A G36U C37G, the self-cleavage is 0.02. For the variant G7A A24U A25C C42U, the self-cleavage was 0.07.

On to G7A A11U G35A, for which the self-cleavage turned out to be 0.02. Then G7A A11U G17C, with 0.02; and G7A A14U C15U G29U C31A, with 0.03. Next, G7A A25U U34G U38C C46U: 0.09; A6U U9C G33A: 0.09; A6U U32G C42U: 0.03. As to G7A A12U G22A G36U C42A U43A, the self-cleavage was 0.05. As for G7A A14G G36U C37G, the self-cleavage came out at 0.09.

In the case of G7A A12U G27U G44C, the self-cleavage was 0.08. Then G7A A26U C31A C42U, with 0.02; and A6U U9G C15A G21C G44C, with 0.02; and A6U U28G G35U, with 0.02.

Regarding G7A A12C G21C U32G, the self-cleavage came to 0.01.

As to A6U U32A C46A, the self-cleavage came to 0.21. Next, G7A A12U A24U A25U G36A G44C: 0.03; G7A A12U C31U: 0.04. Then G7A A16U U32G G35C G40C, with 0.11; and G7A A11G A25U G33C, with 0.02; and G7A A25C G33U, with 0.38.

G7A A24G C42A: the self-cleavage came to 0.17.

Turning to G7A A12U G19A G29A, the self-cleavage turned out to be 0.1. Next, G7A C8A A24G A26C: 0.15; G7A A25U G30C G35A: 0.08. Consider G7A A16U G21U U32A C42U, for which the self-cleavage came to 0.03. Then G7A A25U U34G, with 0.06; and G7A A16U A39G, with 0.1; and G7A A11G A12C C42U U43G, with 0.01.

For the variant G7A A12C U34G U43G C45U, the self-cleavage stood at 0.

For G7A A16G U32C C42A, the self-cleavage worked out at 0.02. Then G7A A12C A24U, with 0.04; and G7A A25U G33C C46A, with 0.03; and A6U G35C G40C, with 0.04. Next, G7A A12C C13A G22A C31G: 0.05. Next, G7A A25C U34A: 0.02; G7A A12U C15G C23G U28G: 0.05; G7A A11G G22C: 0.01. Turning to A6U U9C G40U, the self-cleavage was found to be 0.05. Next, G7A A11G G21A U38G: 0.01; G7A A16G G40U A41U: 0.22.

Take A6U U20A G36C: the self-cleavage is 0.02. Consider G7A A25U A39U U43C G44U, for which the self-cleavage was 0.06. As to G7A A12G C13G U34C G44U, the self-cleavage amounted to 0.41. For G7A A14U C31A C46A, the self-cleavage was 0.17.

Take G7A A12U A24G A41C: the self-cleavage turned out to be 0.01.

With G7A A26C A41U G44A, the self-cleavage came out at 0.38.

On to G7A A26U G35U, for which the self-cleavage is 0.12. As for G7A A12G C13U A14G, the self-cleavage was determined as 0.1. Then G7A A14C C37A G40C, with 0.24; and G7A A24U G30U, with 2.94; and G7A A16C G40C G44C, with 0.03. As to G7A A25C U28C G29U, the self-cleavage worked out at 0.07.

Regarding G7A A26G U34G A41U, the self-cleavage came to 0.45. Take G7A A11G G17C G21A A39U: the self-cleavage turned out to be 0.01.

On to A6U G33U G35A, for which the self-cleavage stood at 0.02. Next, G7A A14C U20C A26C: 0.02; A6U U28A C37U: 0.02.

In the case of G7A A11U A12G, the self-cleavage was found to be 0. In the case of G7A A12G A24G G27C C37U, the self-cleavage amounted to 0.01.

Regarding A6U U20G A25U A26U, the self-cleavage amounted to 0.18. Then G7A A26G G33U, with 0.2; and A6U U38G C42A U43A, with 0.02. Next, A6U G35U G40A G44A: 0.65; A6U U20A G29U C42A: 0.01. Next, G7A A11C G19U G29U: 0. As for G7A A12G C42A C45A C46A, the self-cleavage was found to be 0.59. Next, G7A A16U A25G C31G: 0.02; G7A A12C G29C G33C C42U: 0.08; G7A A11C U34G U38A G44A: 0.02. Next, A6U U34A G35U C37U U38G A41G: 0.03. Regarding A6U U20A G27A G35C, the self-cleavage turned out to be 0.09.

A6U U9C G29C: the self-cleavage worked out at 0.03. Then G7A A12C C31G C45A, with 0.01. Then G7A A12G G21U C46A, with 0.01; and A6U U9A A11U G40U, with 0.02.

In the case of A6U U28C A39G C42U, the self-cleavage came out at 0.01. Take A6U U9A C37G: the self-cleavage was 0.02. On to G7A A16G U32G G33U C42G, for which the self-cleavage was 0. Then A6U U20C A25G G29U C46G, with 0.57. With G7A C8A C18U, the self-cleavage came to 1.85. Turning to A6U U9G C15G U38A C45U, the self-cleavage turned out to be 0.01. Next, A6U U32G G40C: 0.07. Consider A6U U28A G29U U38G, for which the self-cleavage was found to be 0. Then A6U U9A G35U, with 0.13; and A6U U9G C31U A39G, with 0.06. Consider G7A A26U G30U U32G G40U, for which the self-cleavage was 0.18. With G7A A12U C15U A26C G33A G44A, the self-cleavage came out at 0.49. Then G7A A12G A14G G21C A41G U43G, with 0.01. On to G7A A25C G33U A41U, for which the self-cleavage amounted to 0.11. Next, G7A A14U C42G: 0.08; A6U U9A A11C G30U: 0.04. Next, A6U U20G C31G: 0.05. On to A6U U20G C31A, for which the self-cleavage stood at 0.03. Then A6U U20A G44U, with 0.09.

In the case of G7A A11C A24U A39G, the self-cleavage came out at 0.01.

Take A6U G36U C42U: the self-cleavage was 0.11. Next, A6U U9A G29U C31A: 0.03.

In the case of A6U U20A U28A G40U, the self-cleavage was found to be 0.06. Next, A6U U28C G40C: 0.02; A6U G33U C46A: 0.42; G7A A12C C18U G27U U32A: 0.02. As for A6U G33U U34C A41C C46A, the self-cleavage was 0.03. On to G7A A39U G40U G44U, for which the self-cleavage was 0.47. Then G7A A12U C18A G19U, with 0.18; and A6U U28A C45G, with 0.29. Then G7A A12G G21U A24U, with 0.1. Then G7A A14C G19U, with 0.03; and G7A A26C C31A C45G, with 0.03. On to G7A A12C G17A U32G, for which the self-cleavage is 0.04. Then G7A A24G G29U, with 0.03.

Consider A6U U20A C23U G35C, for which the self-cleavage was 0.1. Then G7A A25C C37A G40A, with 0.29.

A6U U20G C31A A41C: the self-cleavage was determined as 0.06. On to G7A A14C A39U U43C C46A, for which the self-cleavage was 0.03. Turning to G7A A11U G17A G36C A39C, the self-cleavage came to 0.01. In the case of A6U U32C A39U, the self-cleavage turned out to be 0.11.

For the variant G7A A26C G35U, the self-cleavage was determined as 0.04. With G7A A11G C13U A25U A39U, the self-cleavage was found to be 0.05. As for G7A A25G C31A, the self-cleavage was determined as 0.09. Then A6U G44A C45A, with 0.09.

G7A A14C A41C C46A: the self-cleavage stood at 0.03.

As to A6U G44U C45G, the self-cleavage amounted to 0.07. Then G7A A16G G19A A26G C45U, with 0.08. Next, A6U U9A A14C G27C G40U: 0.1. Then G7A A14G A16U, with 0.31. For G7A A24U G33C, the self-cleavage turned out to be 0.09. Next, A6U U9C G17U G35A: 0.04.

Consider A6U U9G A12G A41C, for which the self-cleavage came out at 0.02. Then G7A A25G G30C, with 0.09; and G7A A11U U20C A26U, with 0.02. Then A6U G40U U43C, with 0.05; and A6U U9A A25C G40A, with 0.09; and A6U G35A G36C U38C, with 0.03. Then A6U U20A G30A, with 0.13; and A6U U9C U38C C45U, with 0.04. Turning to G7A A14U G21A A24U G35A, the self-cleavage is 0.41. Next, G7A A11U A16U A41U: 0.03; A6U G40A A41U: 0.27. Then G7A A16G G35A, with 0.06.

On to A6U U20C C45G, for which the self-cleavage stood at 0.21. In the case of G7A A25C A26U U32C, the self-cleavage turned out to be 0.42. In the case of G7A A16U G29U G36U, the self-cleavage came out at 0.14. Then G7A A16G C42A C45G, with 0.22; and A6U U9A A24U, with 0.05. Next, G7A A12G G21C C23A A26C G27A U38C C45A: 0.04; A6U U32C U34C U38G G44C: 0. Then G7A A16C C18G U38G, with 0.11. For G7A A26U G40A, the self-cleavage came to 0.15. Then G7A A41C C45A, with 0.1; and G7A A14U C23A, with 0.16; and G7A A14C C18A U28C G36U A39G C42U, with 0.03.

As for A6U U9A C15A G27U G29U, the self-cleavage is 0.1. Then G7A A11C C18G A41U, with 0.02.

Turning to A6U U28G U34C C46G, the self-cleavage is 0.03. Next, G7A A14C G40C: 0.27.

These data come from the RNAGym collection of RNA variant scans (doi:10.7554/elife.90254).
